Values quoted from earlier work as cited in paper PMC7555825, “New Insights of the Zn(II)-Induced P2 × 4R Positive Allosteric Modulation: Role of Head Receptor Domain SS2/SS3, E160 and D170” (International Journal of Molecular Sciences, 2020).

Molecular target: T1, rP2 × 4R (Rattus norvegicus, UniProt P51577)
T1 construct: host or cells: Xenopus laevis oocytes (intranuclear plasmid injection, pcDNA3)
T1 sequence (P51577 1-388): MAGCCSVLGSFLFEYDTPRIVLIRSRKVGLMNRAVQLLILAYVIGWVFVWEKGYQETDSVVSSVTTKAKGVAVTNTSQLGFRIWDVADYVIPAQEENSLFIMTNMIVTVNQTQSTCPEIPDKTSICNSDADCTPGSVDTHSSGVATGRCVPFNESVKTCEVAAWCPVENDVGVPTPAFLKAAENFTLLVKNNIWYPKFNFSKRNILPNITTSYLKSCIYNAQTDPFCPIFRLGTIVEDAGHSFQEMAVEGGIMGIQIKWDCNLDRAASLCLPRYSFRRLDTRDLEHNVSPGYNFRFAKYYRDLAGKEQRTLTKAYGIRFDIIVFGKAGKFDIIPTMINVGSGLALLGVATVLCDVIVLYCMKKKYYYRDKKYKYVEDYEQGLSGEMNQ
Design: method as in PMID 10737610, PMID 10188989, PMID 10322050, PMID 8622997
Details: P2 × 4R; cited from earlier work

For `[Cl-].[Cl-].[Zn+2]` [Zn(II), zinc chloride (ZnCl2)], the “fold leftward displacement of the ATP concentration–response curve by Zn(II)” value is given as 5 fold.
